# Experimental data as given in PMC12136788.
# The list shows a part of the results.
# T1: UNK ZnF1-6 (called full-length) (human, UniProt Q9C0B0 30-357)
# T1 sequence: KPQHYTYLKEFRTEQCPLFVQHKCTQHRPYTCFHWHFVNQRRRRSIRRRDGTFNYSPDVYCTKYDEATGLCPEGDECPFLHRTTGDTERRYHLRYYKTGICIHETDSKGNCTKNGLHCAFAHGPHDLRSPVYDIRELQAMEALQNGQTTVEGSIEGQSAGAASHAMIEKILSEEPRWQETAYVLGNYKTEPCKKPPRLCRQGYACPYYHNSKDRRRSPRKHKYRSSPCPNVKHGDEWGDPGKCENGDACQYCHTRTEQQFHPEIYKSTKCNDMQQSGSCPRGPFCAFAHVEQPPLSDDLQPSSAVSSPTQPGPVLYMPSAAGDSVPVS
# B1: chr11:69651811:69651939:+|3pUTR|ENSG00000110092|msi1_unk|FALSE|overlapping (ssRNA)
# RNA: GGGAGUUCUACAGUCCGACGAUCUAAAGCACAGCUGUAGUGGGGUUCUAGGCAUCUCUGUACUUUGCUUGCUCAUAUGCAUGUAGUCACUUUAUAAGUCAUUGUAUGUUAUUAUAUUCCGUAGGUAGAUGUGUAACCUCUUCACAACAGAGGAUUGAGCAUCA
# B2: chr5:177457090:177457109:-|3pUTR|ENSG00000113758|msi1_unk|FALSE|overlapping (ssRNA)
# RNA: GGGAGUUCUACAGUCCGACGAUCGGUAGUUGAGACGCUGUUGCAAAUUCCACCCCUCCUUCCCUGGUCCAGAUUGUAGCUCUUAGUCCUCCCUGCUCAGCUGGCCGGGUUGGAGGCCUCACCCUGCUUGGGGCCUGGCGUGGGCAACAGAGGAUUGAGCAUCA
# B3: chr1:26281289:26281390:+|3pUTR|ENSG00000142669|msi1_unk|FALSE|overlapping (ssRNA)
# RNA: GGGAGUUCUACAGUCCGACGAUCUCCCUCCUCUCUAAAUGUAGUCCCCUCUCCUCCAUCUAAAGGCAACAUUCCUUACCCAUUAGUCUCAGAAAUUGUCUUAAGCAACAGCCCCAAAUGCUGGCUGCCCCCAGCCAAGCAUUGCAACAGAGGAUUGAGCAUCA
# B4: chr4:189940876:189940977:+|5pUTR|ENSG00000109536|unk|FALSE|unique (ssRNA)
# RNA: GGGAGUUCUACAGUCCGACGAUCAGUGGAACUCUGAGCCAUUCAGCGUUUGGGUGAAGACGGAGGCGGGUUCUACAGAGACGUAGGCUGUCAGGGAGUGUUUAUUUCGCGUCCGCUUCUGUUUCUCCGCGCCCCUGUGCUGCCCAACAGAGGAUUGAGCAUCA
# B5: ENSG00000184898:stop:overlap|stop_codon|ENSG00000184898|stop_codon|NA|stop_codon (ssRNA)
# RNA: GGGAGUUCUACAGUCCGACGAUCGGCUGUUAGGGCUUAACUGUUGUCCUCCCACGCCUCGGGGGGAACAAAAGUGGCCUGAUUAGCCAGAAAUGGAGGUCACAGCUGCCUUUUGAAAAGGGCUAAUAAGAACGAUUCGAGCCACAACAGAGGAUUGAGCAUCA
# B6: ENSG00000135956:stop:overlap|stop_codon|ENSG00000135956|stop_codon|NA|stop_codon (ssRNA)
# RNA: GGGAGUUCUACAGUCCGACGAUCUGAAAGACAGUGCUGCUCCUGCGGGUCAUCGCCGCCUUCUGUUUCCUGGGCAUCCUGUGUAGUCUCUCCGCUUUCCUUCUGGAUGUCUUUGGGCCGAAGCAUCCUGCUCUGAAGAUCACUCAACAGAGGAUUGAGCAUCA
# B7: chr19:48922626:48922741:+|3pUTR|ENSG00000104805|msi1|FALSE|unique (ssRNA)
# RNA: GGGAGUUCUACAGUCCGACGAUCUCCUCCGAGGGGCUUGCCUUCUCUCGUGUCCAGUGAGGUGCUCAGUGAUCGGCUUAACUUAGAGAAGCCCGCCCCCUCCCCUUCUCCGUCUGUCCCAAGAGGGUCUGCUCUGAGCCUGCGCAACAGAGGAUUGAGCAUCA
# B8: ENSG00000154380:stop:overlap|stop_codon|ENSG00000154380|stop_codon|NA|stop_codon (ssRNA)
# RNA: GGGAGUUCUACAGUCCGACGAUCAGCUAAAAGAAGAGCUCAUUGAUGCAAUCAGGCAGGAACUGAGCAAGUCAAAUACUGCAUAGAGGAACAGACUAAGGAGAGAUAGGACUUUAAUCUGGAGGAAAAAUAUCCUACAAACAACAACAGAGGAUUGAGCAUCA
# B9: chr3:128622278:128622381:-|CDS|ENSG00000163902|unk|FALSE|unique (ssRNA)
# RNA: GGGAGUUCUACAGUCCGACGAUCAGCCAGGAUGAAGGUAGCCUGCAUCACAGAGCAGGUCUUGACCCUGGUCAACAAGAGAAUAGGCCUUUACCGUCACUUUGACGAGACCGUCAAUAGGUACAAGCAAUCCCGGGACAUCUCCAACAGAGGAUUGAGCAUCA
# B10: chr8:80499649:80499757:+|CDS|ENSG00000205189|unk|FALSE|unique (ssRNA)
# RNA: GGGAGUUCUACAGUCCGACGAUCUAAGACUUUAUAUUGCUUUUCAAACAAAGAAAGCCCUAACCAAAACAAUACUACCCACUUAGAUAUUGCUGCAGUUCAAGGUUUUUCAGUCAUCUUGGACUUCUUGUAUUCUGGUAACCUCAACAGAGGAUUGAGCAUCA
# B11: chr8:96261867:96261970:+|5pUTR|ENSG00000156471|unk|FALSE|bound_elsewhere (ssRNA)
# RNA: GGGAGUUCUACAGUCCGACGAUCUCCUUCCCUCUGCUCCCAGCCUUUGCUGGGCGCCAGACCCGGCUUUGCCGUCCGGCUAUUAGCCUACUGUGGCUAGUCACCCCCGGGGUCCCGGCCUUCUCGGGCUGGGGCCGCCGCCACCAACAGAGGAUUGAGCAUCA
# B12: ENSG00000124766:be:win_1251|CDS|ENSG00000124766|bound_else_gene|NA|bound_elsewhere_windowed (ssRNA)
# RNA: GGGAGUUCUACAGUCCGACGAUCGUCCCUGGGCAGCUUCAGUUCGUCGUCGGCGCUCGACCGGGACCUGGAUUUUAACUUCGAGCCCGGCUCCGGCUCGCACUUCGAGUUCCCGGACUACUGCACGCCCGAGGUGAGCGAGAUCAACAGAGGAUUGAGCAUCA
# B13: chr2:200490383:200490484:-|CDS|ENSG00000155729|msi1|FALSE|unique (ssRNA)
# RNA: GGGAGUUCUACAGUCCGACGAUCUCUCCAGCCAGUGCCAUCCAGACGUCGGCUGGGGCGACAGCAAACCGGUUUCAAAGUGGUAGCCGCAGAAAGGCAGCUCAGCGCUCUGCACCUUCCAGAGCCACGGCCCUGGUGGGCACGCAACAGAGGAUUGAGCAUCA
# B14: chr10:62806226:62806343:+|3pUTR|ENSG00000181915|unk|total|mutant (ssRNA)
# RNA: GGGAGUUCUACAGUCCGACGAUCCUACCCCUCCGUUAAACCGGGUUUAUUUUCCACUCAUGCCCUUAUGCCUUUUUUUCUUACCGUUUUUUAACUUAUUGACUGUGCAUGACCCAGUGGUUUGAAUUGUUUUCCGUUCAAGUCCAACAGAGGAUUGAGCAUCA
# B15: ENSG00000107863:be:win_5451|CDS|ENSG00000107863|bound_else_gene|NA|bound_elsewhere_windowed (ssRNA)
# RNA: GGGAGUUCUACAGUCCGACGAUCUUUUUGGAAAGUGCAUGAGCAGAGCGGGGAGAGAGAAUCUGAACUUUCAGCUGUAAACCGGUUAAAACCAAAAUGCUCAGCCCAGGACCUUUCCAUCUCAGACUGGCUGGCCAGGGAACGCAACAGAGGAUUGAGCAUCA
# B16: chr2:159432892:159433005:-|CDS|ENSG00000123636|unk|FALSE|unique (ssRNA)
# RNA: GGGAGUUCUACAGUCCGACGAUCACACCUGUAAUGCCCUCUGCCUCUCCCAUCCUGCAUAGUCAAGGGAAGGAAAAAGCAGUUAGCAAUAAUGUAAACCCAGUAAAAACACAGCAUCACUCCCAUCCUGCAAAAUCUUUAGUGCAACAGAGGAUUGAGCAUCA
# B17: chr12:49323620:49323721:+|CDS|ENSG00000135451|unk|total|mutant (ssRNA)
# RNA: GGGAGUUCUACAGUCCGACGAUCAUCAUGACCACCCGGCAAGCCACGAAGGAUCCCCUCCUCCGGGGUGUAUCUCCUACCCCCCGCAAGAUUCCGGUACGCUCUCAGAAACGCACGCCUUUCCCCACUGUUACAUCGUGCGCCCAACAGAGGAUUGAGCAUCA
# B18: chr2:85649053:85649154:+|3pUTR|ENSG00000168883|unk|FALSE|unique (ssRNA)
# RNA: GGGAGUUCUACAGUCCGACGAUCUUCAGCAGGGCAGAACCCUUCUCCAGAUGUGUGUAACUUAUGUCUUGAGUAUCUGGGAGUAGUUGAAGAACAGAUAAUUCCUUCCAAACAUCAAGCCUUGGGAUUCUUGGAGCAAGCAGACAACAGAGGAUUGAGCAUCA
# B19: chr20:23564731:23564947:-|three_prime_utr|ENSG00000101435|control|control|control (ssRNA)
# RNA: GGGAGUUCUACAGUCCGACGAUCAGCUUUGGACUUGUUUGUUAUCCUAUUUUGCAUGUGUUUGAGAUCUCAGAUCAGUGUUUUAGAAAAUCCACACAUCUUGAGCCUAAUCAUGUAGUGUAGAUCAUUAAACAUCAGCAUUUUCAACAGAGGAUUGAGCAUCA
# B20: chr8:17299120:17299221:-|3pUTR|ENSG00000003987|unk|FALSE|unique (ssRNA)
# RNA: GGGAGUUCUACAGUCCGACGAUCUCCUCAUUAUUUAAAAAUGCUAAACCUUGUAUCUCACUUUUUCUCUAACACUGAUUUAAUAGCUAACGAGGUAGAAGCAACAUUCAUUCUCCUGGUCUUACAUAUGAAUUUAAGUAUCAGCAACAGAGGAUUGAGCAUCA
# B21: chr8:94832020:94832135:+|CDS|ENSG00000164941|unk|FALSE|unique (ssRNA)
# RNA: GGGAGUUCUACAGUCCGACGAUCGGUACUAGAAGCAGCCCUAAAAUUAAACAAGGAUCUUUAUGUCCAUACGAUGAGAACUCUAGAUUUAUUGGCCAUGGAACCAGGCAUGGUAAAUGGAGAAACUGAGAGUUCUACUGCUGGCAACAGAGGAUUGAGCAUCA
# B22: chr1:179108573:179108674:-|CDS|ENSG00000143322|unk|FALSE|bound_elsewhere (ssRNA)
# RNA: GGGAGUUCUACAGUCCGACGAUCAGCCAAGUUAUUGCCCAGAGGAGCCACAGCUCUUCCUCUCAGAACACCCUCUGGGGAUCUAGCCAUUACAGAGAAGGACCCUCCAGGGGUGGGAGUGGCUGGAGUGGCAGCUGCCCCCAACAACAGAGGAUUGAGCAUCA
# Molecular target: T1, UNK ZnF1-6 (called full-length)
# Test: nsRBNS (natural sequence RNA bind-n-seq); RBNS binding buffer (assumed for nsRBNS): 25 mM Tris pH 7.5, 150 mM KCl, 3 mM MgCl2, 0.01% Triton X-100, 500 ug/ml BSA, 20 U/ml SUPERase-In, 4 C; UNK is unkempt and MSI1 is Musashi-1; names of the RNAs are library labels; protein concentration not given here; high values mean tight binding
row,Binder,binding signal [enrichment R]
1,B1,0.537
2,B2,1.26
3,B3,1.61
4,B4,0.988
5,B5,0.677
6,B6,0.575
7,B7,1.05
8,B8,0.87
9,B9,0.458
10,B10,0.752
11,B11,0.583
12,B12,0.658
13,B13,0.603
14,B14,1.24
15,B15,0.782
16,B16,1.22
17,B17,0.687
18,B18,0.54
19,B19,0.35
20,B20,0.619
21,B21,0.902
22,B22,0.76
